Results on 2 molecules are retold here after patent US9353185B2, “Antibodies” (Affitech Research AS, priority 2010, dated 2016).

“Also recorded” adds a separate entry of the source.

Assay [1] has as its target T1, monkey (Macaca mulatta) CXCR4 (Macaca mulatta, UniProt P79394).
T1 construct: expressed in transfected cells; host or cells: HEK-293 (HEK293T/17), transient transfection with Fugene
The experiment in a line: Species cross reactivity: binding to HEK-293 cells transiently expressing monkey CXCR4. The settings on record: scFv level, transiently transfected HEK-293 cells. As to the method:
The antibody candidates were tested on scFv level for their ability to cross-react with CXCR4 from monkey and mouse.
HEK293T/17 cells were maintained as described above.
FACS-binding analyses (EasyCyte) were performed using HEK-293 cells transiently transfected with plasmids encoding either, mouse (Gene bank accession number BC031665) or monkey (Macaca mulatta) CXCR4 (NCBI Accession number NP_001036110). Two experiments were performed, one using α-cMyc and PE-labelled goat anti-mouse IgG antibody, the second using a directly conjugated RPE-c-Myc antibody for detection. In addition, cross-reactivity on IgG level was analysed. In the latter case, antibody binding was detected with PE-conjugated goat anti-human IgG antibody.

The test system of assay [2] is Ramos cells. Nature of the assay: Complement dependent cytotoxicity (CDC) in presence of human serum, calcein-AM release. Type of assay: cell-based. The settings on record: IgG. The protocol: To test whether the anti-CXCR41 IgGs described herein are able to mediate complement dependent cytotoxicity, CDC experiments have been performed using Ramos cells which are derived from Burkitt's B-cell lymphoma and have constitutive expression of CXCR4.
Ramos cells were maintained as described above.
The Ramos cells, were sedimented by centrifugation and washed twice in RPMI-1640 culture medium. 2.5×10^6 cells/ml was mixed with calcein-AM (Invitrogen) to a final concentration of 10 μM and then incubated at 37° C. for 30 min. The cells were washed three times in RPMI-1640 with 10% FCS and the cell density was adjusted to 4×10^6 cells/mL. A 25 μl aliquot of labelled target cells and 25 μl of human serum were mixed in the wells in a 96-well microtiter plate. Dilutions of the antibodies (all in IgG format) were added to the same wells in 50 μl volume thus resulting in a final antibody concentration ranging from 5×10^−5 to 5×10^4 ng/ml. Twenty μl 0.9% Triton-X100 was added to control wells to achieve complete lysis of the target cells (maximal lysis defining 100%). The microtiter plate was incubated for 1 hr at 37° C. […] The fluorescence (excitation at 488 nm, emission at 518 nm) was recorded using a TECAN M200 plate reader. […] The fluorescence intensity of the samples without antibodies was subtracted as a background and the percentage of specific lysis in samples with antibodies was calculated. […]

The subject of assay [3] is CCRF-CEM cells. Nature of the assay: Antibody dependent cellular cytotoxicity (ADCC) with human PBMCs, calcein-AM release. Format: cell-based. The settings on record: for EC50 (ng/mL) scFv / Max killing (%) scFv / EC50: scFv cross-linked with anti-cMyc IgG1, CCRF-CEM, human PBMCs E:T 20:1; for Max killing (%) scFv: 4 hrs; for EC50: read-out: EC50 scFv, molar value in brackets. The protocol: One potential mechanism by which an antibody can be therapeutically useful is the ability to mediate ADCC of CXCR4 expressing target cells, if killing the target cell is the preferred mode of action. This was tested using CCRF-CEM cells which are derived from T cell lymphoma and have constitutive expression of CXCR4. The selected antibodies were tested both as scFv fragments cross-linked with anti-cMyc antibody and as fully human IgG1 antibodies.
CCRF-CEM cells were maintained as described above.
CCRF-CEM target cells, were sedimented by centrifugation and washed twice in RPMI-1640 medium. 2.5×10^6 cells/ml was mixed with calcein-AM (Invitrogen) to a final concentration of 10 μM and incubated at 37° C. for 30 min. The cells were washed three times in RPMI-1640 medium supplemented with 10% FCS and the cell density was adjusted to 3×10^5 cells/ml. Human PBMCs were prepared from fresh donor blood by Lymphoprep (Axis-Shield, Liverpool, UK) density gradient centrifugation, washed in RPMI-1640/10% FCS and stored frozen in RPMI with 10% FCS and 10% DMSO at density 3×10^7 cells/ml in liquid nitrogen. The effector cells were thawed on day of the experiment, washed in RPMI with 10% FCS and resuspended at density 6×10^6 cells/ml. Fifty μl of each target and effector cells were mixed in the same wells of a 96-well microtiter plate thus providing an effector-to-target (E:T) cell ratio of 20:1. The antibodies in IgG1 format were added to the same wells in a volume of 100 μl resulting in a concentration range of 0.8 to 1000 ng/ml. Accordingly, the scFv fragments were added in 20 μl volume for final concentrations from 2.5 to 5×10^4 ng/ml, after having before being pre-mixed with an excess (20 μg/ml) of anti-cMyc chimeric (mouse variable/human constant) IgG1 antibody (derived from hybridoma 9E10). The microtiter plate was incubated for 4 hrs at 37° C. After 3 hrs and 45 min incubation, 20 μl 0.9% Triton-X100 was added to control wells to achieve complete lysis of the target cells (maximal lysis). 100 μl supernatant of each sample was then transferred into a black microtiter plate and the fluorescence (excitation at 488 nm, emission at 518 nm) was recorded using a TECAN M200 plate reader. Each experiment was carried out in quadruplicates. The fluorescence intensity of the samples without antibodies was subtracted as a background and the percentage of specific lysis in samples with antibodies was calculated. The dose-response curves were computed by nonlinear regression analysis and a three-parameter fit model using Prism software (GraphPad).

T1 sequence (P79394 whole entry): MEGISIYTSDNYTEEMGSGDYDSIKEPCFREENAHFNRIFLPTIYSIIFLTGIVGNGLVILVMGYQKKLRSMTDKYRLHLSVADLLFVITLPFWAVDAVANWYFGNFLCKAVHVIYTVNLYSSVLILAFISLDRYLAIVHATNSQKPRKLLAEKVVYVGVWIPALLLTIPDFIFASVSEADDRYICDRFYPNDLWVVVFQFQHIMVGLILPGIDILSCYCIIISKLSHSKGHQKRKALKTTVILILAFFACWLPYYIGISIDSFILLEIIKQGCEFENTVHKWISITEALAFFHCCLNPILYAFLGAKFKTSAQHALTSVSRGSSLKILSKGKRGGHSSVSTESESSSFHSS

B1: C-9P21: human anti-CXCR4 antibody; scFv SEQ ID NO: 35; IgG1/kappa heavy chain SEQ ID NO: 108, light chain SEQ ID NO: 109 (antibody)
heavy: QVQLQESGGGLVHPGGSLRLSCAASGFTFSSYWMHWVRQAPGKGLVWVSRINSDGSSTSYADSVKGRFTISRDNAKNTLYLQMNSLRAEDTAVYYCARKILGVGARSRRYFDYWGQGTMVTVSS[human IgG1 constant region left out]
light: ETTLTQSPGTLSLSPGERATLSCRASQSVVSNYLAWYQQKPGQAPRLLISGASNRATGISDRFSGSGSGADFTLTISRVEPEDSAVYYCQQFDKSTWTFGQGTKVEIKRTVAAPSVFIFPPSDEQLKSGTASVVCLLNNFYPREAKVQWKVDNALQSGNSQESVTEQDSKDSTYSLSSTLTLSKADYEKHKVYACEVTHQGLSSPVTKSFNRGEC
modifications: antibody sequence
As for B1, the “cross-reactivity with monkey CXCR4” value in assay [1] is “bind to both human CXCR4 and monkey CXCR4; also recorded: good cross-reactivity”. The “CDC activity against Ramos cells (words)” value in assay [2] is on record as “do not induce CDC”. In addition, the “ADCC activity against CCRF-CEM cells” value in assay [3] (scFv and IgG, human PBMCs) is “greatest maximum cell killing”. For the same molecule, in assay [3], the “EC50 (ng/mL) scFv” value was 2.7 ng/mL, the “Max killing (%) scFv” value was 96.4% and the EC50 was 90 pM.

B2: D-1K21: human anti-CXCR4 antibody; scFv SEQ ID NO: 68; IgG1/kappa heavy chain SEQ ID NO: 120, light chain SEQ ID NO: 121 (antibody)
heavy: [about 100 residues left out]RNLIAARPRNRGRDAFDIWGQGTMVTVSS[human IgG1 constant region left out]
light: DIQMTQSPSTLSASVGDRVTITCRASQSIGGSLAWYQQKPGKGPNLLIYAASTLQSGVPSRFSGSGSGTEFTLTISSLQPEDSATYYCQHYESYPLSFGGGTKLEIKRTVAAPSVFIFPPSDEQLKSGTASVVCLLNNFYPREAKVQWKVDNALQSGNSQESVTEQDSKDSTYSLSSTLTLSKADYEKHKVYACEVTHQGLSSPVTKSFNRGEC
modifications: antibody sequence
As to B2, the “cross-reactivity with monkey CXCR4” value in assay [1] was “good cross-reactivity”. Further, the “cross-reactivity with monkey CXCR4” value in assay [1] (listed as D1K21) was “bind to both human CXCR4 and monkey CXCR4”. Also, in assay [2], the “CDC activity against Ramos cells (words)” value is listed as “do not induce CDC”. Besides, in assay [3], the “EC50 (ng/mL) scFv” value was 18.8 ng/mL, the “Max killing (%) scFv” value was 68.6% and the EC50 is 700 pM.
